In the RNAGym collection of RNA variant scans (doi:10.7554/elife.90254) one finds self-cleavage data, which are given here for 167 variants.

The source gives no read counts; variants with many changes may rest on few reads.

B1: LINE1-mini (parent)
chain: GGCAGAGCUCAACACAGCGUGGCAAAGUGGCUGUGGCUAGACUGCC

The variants in this data set derive from B1. Kind of data set: self-cleavage, relative activity (ratio to wild type); higher = more cleavage; in vitro, sequencing; the parent is a self-cleaving ribozyme.
For G5A C10U A12G A24U U43C, the self-cleavage turned out to be 0.01.

With G1A G2U C15G, the self-cleavage came to 0.03.

Take G1C A6G C15U G33U: the self-cleavage came to 0.01.

G2U G5U U20C A24C G40C: the self-cleavage worked out at 0.01.

For G7C A11C A25G C37U, the self-cleavage is 0.02.

With A12G G17A A24G, the self-cleavage amounted to 0.05.

For G7U A14U U20G, the self-cleavage is 0.09.

For the variant C3U G17C U20A G21A U32G G35A C46G, the self-cleavage is 0.06.

As for A12C A16G C18G G19A, the self-cleavage came to 0.

Consider G5A A41C C42A, for which the self-cleavage came out at 0.01.

Consider A6U G17C G29C G36U U43C, for which the self-cleavage came out at 0.13.

For A12G C13A G30U, the self-cleavage worked out at 0.

G1C A11U G27C A41U: the self-cleavage was determined as 0.

Regarding C18G G21A G33A, the self-cleavage is 0.03.

For G5U A6C U20A C23U G35U C45A, the self-cleavage is 0.03.

With A4G A16C U38G C45A, the self-cleavage is 0.04.

As to A6G C8G G40C, the self-cleavage amounted to 0.06.

In the case of G5C C13U A26G G27A, the self-cleavage turned out to be 0.02.

Regarding G7A C10A G19A U20A C37U C45A, the self-cleavage was 0.

For G17C A25U U34C, the self-cleavage was 0.04.

As to A4U G5A C23U G29U G36C G44A, the self-cleavage turned out to be 0.04.

For C15U G19A U28C, the self-cleavage is 1.32.

As to U9G A16U A24G C46A, the self-cleavage came out at 0.06.

Regarding G5U C15G A25U, the self-cleavage worked out at 0.3.

In the case of C3G G5C A12G C31U, the self-cleavage is 0.05.

For G2C A12U C31A A39C, the self-cleavage was found to be 0.02.

Regarding C8G A14G C15G C18A G27A G29U G35C G44C, the self-cleavage was determined as 0.18.

In the case of G1A C13U G40C, the self-cleavage is 0.03.

Consider U9C C10U A11G G17C, for which the self-cleavage came to 0.

As to C23A G33U C45G, the self-cleavage was 0.06.

On to C18A A25C C31A G33C, for which the self-cleavage was found to be 0.05.

In the case of G1C C10U C37A U38A, the self-cleavage was 0.

With C18A C23U A25U A26C, the self-cleavage is 0.19.

As to C3U C18G A24C A39U G44U, the self-cleavage is 0.01.

For the variant C3A G40U A41U, the self-cleavage was determined as 0.21.

For the variant U9G C15A A25G G30U G33A, the self-cleavage is 0.06.

Take G17U U20G U32A: the self-cleavage amounted to 0.11.

C3A A12C G36U U38A C42U G44U: the self-cleavage stood at 0.01.

On to G1C G2A U20C G21U C31U G36A C46A, for which the self-cleavage came to 0.45.

As for G5A C42A C46A, the self-cleavage amounted to 0.02.

For C31G C37A U43C, the self-cleavage is 0.02.

Consider C8U C15U G33A, for which the self-cleavage was 0.36.

Consider G19C U32C C42G, for which the self-cleavage worked out at 0.06.

Consider C10A C13G C18A U38C, for which the self-cleavage was 0.

Regarding A6G G35U G36A, the self-cleavage worked out at 0.12.

C3U C8A U28C: the self-cleavage was 0.23.

Consider G1C G21A G36A, for which the self-cleavage was 0.24.

For G1A G5U G22A, the self-cleavage worked out at 0.06.

Regarding C3A A12U C42G, the self-cleavage worked out at 0.03.

With A14C G35U G44U, the self-cleavage amounted to 0.07.

In the case of C8U U32A G44U, the self-cleavage worked out at 0.07.

Turning to C23A G33U U34G G35A C45G, the self-cleavage is 0.03.

With G5A G22C C42U, the self-cleavage came to 0.58.

Turning to A4U G17C U20G, the self-cleavage is 0.04.

C15U G17C C23U U32G G33C: the self-cleavage is 0.01.

On to G1U C10U A11C G22A C45G, for which the self-cleavage was found to be 0.01.

Regarding G1U G29A U32A, the self-cleavage was determined as 0.01.

Regarding G1U C15U C18A G30A G40C, the self-cleavage was 0.01.

With A6C C15A G22A C23G, the self-cleavage came to 0.1.

On to G21U G40C C42A, for which the self-cleavage stood at 0.07.

As to C3U C13U C23U G29U C31U G40C A41G, the self-cleavage was found to be 0.26.

Regarding G17U G19C G30U G44A C45A, the self-cleavage amounted to 0.04.

Consider C8G A11U A16G G19U G27C A39U, for which the self-cleavage amounted to 0.

With G2U A16U G19U U20C G36C C37U C42G, the self-cleavage turned out to be 0.02.

With U34A A41U C42A, the self-cleavage was found to be 0.07.

As for U34C G36U C46A, the self-cleavage is 0.03.

On to A6C G7A C8A, for which the self-cleavage came to 0.12.

Turning to C15A A26U G44U, the self-cleavage is 0.02.

Turning to U9C A16C C18A G27C U28A C37A, the self-cleavage came out at 0.02.

For the variant U9A G29C C45U, the self-cleavage turned out to be 0.04.

As to G1U C8G C10U G27U, the self-cleavage is 0.07.

Consider G27A C31A A39U, for which the self-cleavage was found to be 0.17.

Regarding G5C C23U A25C U32A, the self-cleavage came to 0.19.

In the case of G1U U20C A39C C45G, the self-cleavage is 0.02.

For the variant C8U G29C U43A, the self-cleavage turned out to be 0.03.

G5C G7A G44A C46A: the self-cleavage is 0.02.

Turning to A4U C8A C31U C37A, the self-cleavage came out at 0.13.

On to A4G C13A U28G U34C, for which the self-cleavage is 0.03.

As for G2U A11G C13U C18G, the self-cleavage worked out at 0.04.

Consider U9C C10A A25C C46A, for which the self-cleavage is 0.

Consider C8A C10G G22U G30C, for which the self-cleavage was found to be 0.01.

With U20C A25U G44A, the self-cleavage came to 0.15.

Take G30A G33U C46G: the self-cleavage is 0.07.

As for C10U A11U C23G G30A G35A, the self-cleavage was 0.

A12G C13U G27C C46A: the self-cleavage came to 0.02.

As to A6U G29A G35A, the self-cleavage worked out at 0.03.

For C23A A26G A39U, the self-cleavage was 0.4.

For the variant A4U U28C G44U, the self-cleavage came to 0.09.

In the case of G1U C23U C31G U43A, the self-cleavage amounted to 0.03.

Consider C10A C18U C23A G33A, for which the self-cleavage was 0.

On to G19C A24C G27A U32A G33U G35C C42A, for which the self-cleavage was found to be 0.01.

With G1C C10G A14G G35A, the self-cleavage is 0.

G7U A26C A41C: the self-cleavage was 0.09.

With C10U A14C C31G, the self-cleavage came to 0.01.

In the case of G17A U28A G30U G33C G36A C42G, the self-cleavage stood at 0.01.

Take A6U G7C C10A G19A G27A: the self-cleavage was determined as 0.01.

As for G1U C3U G7C G17U U43A, the self-cleavage amounted to 0.17.

Take G5A C13G A16U G21U U43C: the self-cleavage is 0.03.

With G17U C18U C23U G29C C42U, the self-cleavage was determined as 0.05.

In the case of C8A C10A C31U U32G G36A, the self-cleavage was determined as 0.02.

Turning to A24G G30C G40C C42A, the self-cleavage is 0.

For C8U C10G C45G, the self-cleavage is 0.03.

G5A G19U G22C A25C C45G: the self-cleavage was 0.05.

As for A4U C8G G33A C37G, the self-cleavage stood at 0.05.

In the case of A14G G17U G21U C31U, the self-cleavage was determined as 0.01.

For G17C U20G G40A, the self-cleavage stood at 0.01.

Consider G5U A14G G22A C45A, for which the self-cleavage is 0.03.

In the case of G19U C37A A39U, the self-cleavage worked out at 0.02.

Consider A6C G29C G36A G40U, for which the self-cleavage worked out at 0.07.

As for G5U G7C C23G G36A, the self-cleavage came out at 0.37.

For the variant U9C C23G A25U, the self-cleavage came to 0.02.

As to C8G C13A C23A, the self-cleavage turned out to be 0.02.

C8U C23A U32A: the self-cleavage came to 0.08.

On to G5U C15U G29U, for which the self-cleavage worked out at 0.06.

As to A4U C13G A14G G22A, the self-cleavage was 0.03.

For C10G G29U G36A, the self-cleavage is 0.02.

Turning to C8U C10G A11C A14G, the self-cleavage turned out to be 0.01.

For U9A G21C A26C, the self-cleavage came to 0.12.

In the case of C10A A24U G30U, the self-cleavage came to 0.08.

Consider C23A A26C U28G C45U, for which the self-cleavage came out at 1.5.

As for G7U G21A G22U A26C C31G, the self-cleavage turned out to be 0.09.

For the variant G5U C18U U38C, the self-cleavage was determined as 0.04.

Consider C13U G21A U38C, for which the self-cleavage came to 0.18.

With A4U A25G C46A, the self-cleavage was 0.13.

With C13G C18G G21A G27U A41U C46A, the self-cleavage came to 0.12.

Take G5C U20C G40U: the self-cleavage worked out at 0.09.

C3U G5A C18G C45A: the self-cleavage stood at 0.02.

Take G5U A14C G21U G40U: the self-cleavage was 0.03.

G5C A6C G21C: the self-cleavage was 0.1.

For A4U G5U G29U, the self-cleavage was 0.02.

Take G5U C8A C10A C31G C37G: the self-cleavage is 0.

As to U20G A25C G33U G40U, the self-cleavage was determined as 0.07.

Regarding C23A G30A G40U C45A, the self-cleavage amounted to 0.64.

For A4C G7A A24C C46G, the self-cleavage is 0.25.

Consider C3G C8G G30C G36U, for which the self-cleavage is 0.56.

As for C8G A12U A16U C18U G27C U28A C42G, the self-cleavage was found to be 0.02.

For the variant C18U G19U C23U C31U, the self-cleavage is 0.06.

In the case of C13U A14C A16U, the self-cleavage is 0.08.

For C15A G19C C23U, the self-cleavage came to 0.06.

In the case of A6U G27A C37G, the self-cleavage turned out to be 0.03.

With C3U G7A U34G C37G, the self-cleavage was 0.03.

As to G5A C8U A26G G36A, the self-cleavage was 1.73.

Consider C10G G19A G22A C45G, for which the self-cleavage amounted to 0.02.

With C23A A41C C46G, the self-cleavage is 0.01.

On to G1U G2C G19U G35A U38G, for which the self-cleavage was 0.

Turning to C3U A14U C23U G44U, the self-cleavage came out at 0.1.

Consider C8G G19C G21C G27U C37A, for which the self-cleavage was 0.02.

For the variant C10G G17C G36C U38C, the self-cleavage amounted to 0.02.

Regarding G2C C8U A26C C46G, the self-cleavage worked out at 0.3.

Turning to G22A A24U A39C, the self-cleavage was found to be 0.04.

U20C A25C G29A C46G: the self-cleavage was determined as 0.31.

With C3A U9A C13A G22A U34A, the self-cleavage came out at 1.44.

As for G1U C3G G5A A12G C13G G29C G35U G44U, the self-cleavage amounted to 0.01.

In the case of C23G C31A G40A, the self-cleavage stood at 0.03.

Turning to A6G G7C C8G, the self-cleavage was 0.13.

Consider C18U A25G U38C G40U U43A, for which the self-cleavage came to 0.02.

In the case of A11U C15U G29C A41G, the self-cleavage was determined as 0.05.

As for U20G G27U G33A C42A G44A, the self-cleavage came to 0.06.

In the case of A6C C37A G44U, the self-cleavage came out at 0.11.

For the variant A4C G22C G27A G36U, the self-cleavage stood at 0.02.

On to G2C U20A A25U G27C, for which the self-cleavage turned out to be 0.03.

C15G A16G G27U: the self-cleavage was 0.03.

Regarding G2U C3A A14G G19U A24G C42U, the self-cleavage came to 1.44.

On to A4U A14C C45A, for which the self-cleavage was determined as 0.1.

In the case of G5U U9G A16U, the self-cleavage is 0.06.

As for A16G G27U U43A, the self-cleavage amounted to 0.1.

Regarding C15G A25U A26U G29C C45A, the self-cleavage came to 0.08.
